Test results as given in the supplement of paper PMC4967469.
Lines with a small IC50 respond at low doses; where the fit passes the top or lowest dose, that dose stands as a limit. AUC is the area under the same curve over the 256-fold range up to the top dose, as a fraction: 1 means no effect, lower means more sensitive. An inferred top dose comes from the curve model; the source does not state it.

Key:
FR-180204 = compound: Nc1[nH]nc2nnc(-c3c(-c4ccccc4)nn4ccccc34)cc12 [FR-180204]; test: Viability of human cancer cell lines after 72 h of drug (GDSC screen); conditions: top dose 20 µM; top dose inferred
Description: (§1)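 Human cancer cell lines in 384-well plates, medium with 10% serum, drug for 72 h over a 256-fold dose range (nine 2-fold or five 4-fold steps up to the top dose). Adherent lines were fixed and stained with the nucleic acid dye Syto60, suspension lines read with resazurin; signal relative to control wells, capped at 0 and 100%. One two-parameter sigmoid per drug and line, fitted in a mixed model over all curves with the slope shared within a line.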

FK866 = compound: O=C(/C=C/c1cccnc1)NCCCCC1CCN(C(=O)c2ccccc2)CC1 [FK866]; test: as above; conditions: top dose 1 µM; top dose inferred
Description: as §1

| Cell Line | AUC (FR-180204) | IC50 (FR-180204) [µM] | AUC (FK866) | IC50 (FK866) [µM] |
| --- | --- | --- | --- | --- |
| EPLC-272H (lung squamous cell carcinoma, adherent) | 0.949 | > 20 | 0.97 | > 1 |
| ES1 (Ewing sarcoma, adherent) | 0.94 | > 20 | 0.035 | < 0.00391 |
| ES3 (Ewing sarcoma, adherent) | 0.962 | > 20 | 0.14 | 0.00426 |
| ES4 (Ewing sarcoma, adherent) | 0.881 | > 20 | 0.168 | 0.00502 |
| ES5 (Ewing sarcoma, adherent) | 0.916 | > 20 | 0.255 | 0.011 |
| ES6 (Ewing sarcoma, adherent) | 0.958 | > 20 | 0.098 | < 0.00391 |
| ES7 (Ewing sarcoma, adherent) | 0.947 | > 20 | 0.039 | < 0.00391 |
| ES8 (Ewing sarcoma, adherent) | 0.922 | > 20 | 0.081 | < 0.00391 |
| ESO26 (oesophagus, adherent) | 0.923 | > 20 | 0.416 | 0.0374 |
| ESO51 (oesophagus, semi-adherent) | 0.979 | > 20 | 0.166 | < 0.00391 |
| ESS-1 (endometrium, adherent) | 0.99 | > 20 | 0.194 | 0.00874 |
| ETK-1 (biliary tract, adherent) | 0.966 | > 20 | 0.337 | 0.0207 |
| EVSA-T (breast, adherent) | 0.986 | > 20 | 0.954 | > 1 |
| EW-1 (Ewing sarcoma, semi-adherent) | 0.941 | > 20 | 0.987 | > 1 |
| EW-3 (Ewing sarcoma, adherent) | 0.947 | > 20 | 0.058 | < 0.00391 |
| EW-7 (Ewing sarcoma, semi-adherent) | 0.968 | > 20 | 0.025 | < 0.00391 |
| EW-13 (Ewing sarcoma, suspension) | 0.939 | > 20 | 0.094 | < 0.00391 |
| EW-16 (Ewing sarcoma, adherent) | 0.901 | > 20 | 0.082 | < 0.00391 |
| EW-18 (Ewing sarcoma, suspension) | 0.915 | > 20 | 0.197 | 0.0073 |
| EW-24 (Ewing sarcoma, semi-adherent) | 0.932 | > 20 | 0.037 | < 0.00391 |
| EoL-1-cell (haematopoietic neoplasm, suspension) | 0.916 | > 20 | 0.022 | < 0.00391 |
| FLO-1 (oesophagus, adherent) | 0.917 | > 20 | 0.199 | 0.00508 |
| FTC-133 (thyroid, adherent) | 0.985 | > 20 | 0.653 | 0.173 |
| FU97 (stomach, adherent) | 0.974 | > 20 | 0.873 | > 1 |
| FU-OV-1 (ovary, adherent) | 0.903 | > 20 | 0.909 | > 1 |

| Cell Line | AUC (FR-180204) | IC50 (FR-180204) [µM] | AUC (FK866) | IC50 (FK866) [µM] |
| --- | --- | --- | --- | --- |
| Farage (B-cell lymphoma, suspension) | 0.993 | > 20 | 0.992 | > 1 |
| G-292 Clone A141B1 (osteosarcoma, adherent) | 0.976 | > 20 | 0.679 | 0.268 |
| G-361 (melanoma, adherent) | 0.98 | > 20 | 0.341 | 0.0231 |
| G-401 (kidney, adherent) | 0.956 | > 20 | 0.978 | > 1 |
| G-402 (soft tissue, adherent) | 0.971 | > 20 | 0.313 | 0.0156 |
| G-MEL (melanoma, adherent) | 0.982 | > 20 | 0.793 | 0.452 |
| GAK (melanoma, adherent) | 0.989 | > 20 | 0.861 | 0.781 |
| GAMG (glioma, adherent) | 0.984 | > 20 | 0.844 | 0.769 |
| GB-1 (glioma, adherent) | 0.975 | > 20 | 0.059 | < 0.00391 |
| GCT (soft tissue, adherent) | 0.988 | > 20 | 0.317 | 0.0201 |
| GDM-1 (acute myeloid leukaemia, suspension) | 0.853 | 14.6 | 0.044 | < 0.00391 |
| GI-1 (glioma, adherent) | 0.987 | > 20 | 0.18 | 0.00722 |
| GI-ME-N (neuroblastoma, adherent) | 0.952 | > 20 | 0.114 | < 0.00391 |
| GMS-10 (glioma, adherent) | 0.984 | > 20 | 0.626 | 0.139 |
| GOTO (neuroblastoma, adherent) | 0.983 | > 20 | 0.053 | < 0.00391 |
| GP5d (large intestine, adherent) | 0.947 | > 20 | 0.482 | 0.056 |
| GR-ST (lymphoblastic leukaemia, suspension) | 0.962 | > 20 | 0.061 | < 0.00391 |
| GRANTA-519 (B-cell lymphoma, suspension) | 0.991 | > 20 | 0.062 | < 0.00391 |
| GT3TKB (stomach, adherent) | 0.99 | > 20 | 0.038 | < 0.00391 |
| H4 (glioma, adherent) | 0.981 | > 20 | 0.105 | < 0.00391 |
| H9 (lymphoid neoplasm, suspension) | 0.952 | > 20 | 0.064 | < 0.00391 |
| H513 (mesothelioma, semi-adherent) | 0.907 | > 20 | 0.978 | > 1 |
| H2369 (mesothelioma, adherent) | 0.985 | > 20 | 0.808 | 0.537 |
| H2373 (mesothelioma, adherent) | 0.972 | > 20 | 0.654 | 0.188 |
| H2461 (mesothelioma, adherent) | 0.978 | > 20 | 0.526 | 0.075 |

| Cell Line | AUC (FR-180204) | IC50 (FR-180204) [µM] | AUC (FK866) | IC50 (FK866) [µM] |
| --- | --- | --- | --- | --- |
| H2591 (mesothelioma, adherent) | 0.976 | > 20 | 0.935 | > 1 |
| H2595 (mesothelioma, adherent) | 0.961 | > 20 | 0.927 | > 1 |
| H2722 (mesothelioma, adherent) | 0.983 | > 20 | 0.977 | > 1 |
| H2731 (mesothelioma, adherent) | 0.923 | > 20 | 0.972 | > 1 |
| H2795 (mesothelioma, adherent) | 0.977 | > 20 | 0.674 | 0.189 |
| H2803 (mesothelioma, adherent) | 0.966 | > 20 | 0.886 | > 1 |
| H2804 (mesothelioma, adherent) | 0.979 | > 20 | 0.958 | > 1 |
| H2818 (mesothelioma, adherent) | 0.989 | > 20 | 0.916 | > 1 |
| H2869 (mesothelioma, adherent) | 0.983 | > 20 | 0.982 | > 1 |
| H3118 (head and neck, adherent) | 0.94 | > 20 | 0.087 | < 0.00391 |
| H3255 (lung adenocarcinoma, adherent) | 0.845 | 18.7 | 0.959 | > 1 |
| HA7-RCC (kidney, adherent) | 0.959 | > 20 | 0.594 | 0.117 |
| HAL-01 (lymphoblastic leukaemia, suspension) | 0.87 | 15.1 | 0.027 | < 0.00391 |
| HARA (lung squamous cell carcinoma, adherent) | 0.97 | > 20 | 0.281 | 0.0133 |
| HC-1 (hairy cell leukaemia, suspension) | 0.978 | > 20 | 0.07 | < 0.00391 |
| HCC38 (breast, adherent) | 0.976 | > 20 | 0.985 | > 1 |
| HCC70 (breast, adherent) | 0.882 | > 20 | 0.73 | 0.278 |
| HCC202 (breast, adherent) | 0.939 | > 20 | 0.912 | > 1 |
| HCC1143 (breast, adherent) | 0.955 | > 20 | 0.363 | 0.0224 |
| HCC1187 (breast, suspension) | 0.981 | > 20 | 0.787 | 0.413 |
| HCC1395 (breast, adherent) | 0.983 | > 20 | 0.842 | 0.921 |
| HCC1419 (breast, adherent) | 0.965 | > 20 | 0.977 | > 1 |
| HCC1428 (breast, adherent) | 0.984 | > 20 | 0.965 | > 1 |
| HCC1500 (breast, adherent) | 0.987 | > 20 | 0.447 | 0.0445 |
| HCC1569 (breast, adherent) | 0.962 | > 20 | 0.551 | 0.0904 |
